# Reference: publication PMC12136788
# This is one part of the list.
# B1: chr2:240467638:240467855:+|3pUTR|ENSG00000063660|msi1|total|mutant (ssRNA)
# RNA: GGGAGUUCUACAGUCCGACGAUCGGACGGAGGUCCCCGGUUGCUGGUCAGGUCCCCAUGGCUUGUUCUCUGGAACCUGACUUCCGAUGUUUUGGGAUCAGGAGCCCCCAACACAGGCAAGUCCACCCCAUAAUAACCCUGCCACAACAGAGGAUUGAGCAUCA
# B2: chr4:75812186:75812332:+|CDS|ENSG00000138768|unk|FALSE|unique (ssRNA)
# RNA: GGGAGUUCUACAGUCCGACGAUCAGAGCAGCUGGAUUCAUCUAAUAGUACCAUUGCCAUUUUACAAACUGAGAAAGACAAACUAGAGUUGGAAAUUACAGAUUCUAAAAAAGAACAAGAUGAUCUCUUGGUGCUCUUGGCCGACAACAGAGGAUUGAGCAUCA
# B3: chr7:92612324:92612425:-|3pUTR|ENSG00000105810|msi1|FALSE|bound_elsewhere (ssRNA)
# RNA: GGGAGUUCUACAGUCCGACGAUCAUCCAACACAAGCAGUCUUGCCGUUAGGGCAUUUUGAAGCAGAUAGUAGAGUAAGAACUUAGUGACUACAGCUUAUUCUUCUGUAACAUAUGGUUUCAAACAUCUUUGCCAAAAGCUAAGCAACAGAGGAUUGAGCAUCA
# B4: chr11:35619468:35619569:+|CDS|ENSG00000179431|unk|FALSE|unique (ssRNA)
# RNA: GGGAGUUCUACAGUCCGACGAUCCCCCCUCCGGGAUGCCGGGGGUGAGCUGGCCAACCUCAGCCAGGCGGAGCUGGUGGACCUAGUACAAUGGACCGACUUAAUCCUUUUCGACUACCUGACGGCCAACUUCGACCGGCUCGUCAACAGAGGAUUGAGCAUCA
# B5: chr9:93565116:93565217:+|3pUTR|ENSG00000048828|unk|total|mutant (ssRNA)
# RNA: GGGAGUUCUACAGUCCGACGAUCAUAUACAAUACAUCAUACAUACUUUACAAGCAAGUUAAAUGGAGAUAAAGUUGAAAUCACCGAAGAUGCAAAUGACCUUUCAAAAUCAACACAAUGUGUUCUGAAACUUUCGUGACUAAUCAACAGAGGAUUGAGCAUCA
# B6: chr16:58279996:58280223:-|three_prime_utr|ENSG00000103023|control|control|control (ssRNA)
# RNA: GGGAGUUCUACAGUCCGACGAUCGUAAACUGAGAAUGCUGAGUGCCAGGCAUUCACCAUGCUGUUUUGAUGUCUGUUUUUGAUAGUUGCACACUGGGGCUGCCACGGAUAAGCCCAUGGCAUACACUGGGCUGGCUCUCCCUCCAACAGAGGAUUGAGCAUCA
# B7: chr10:67912576:67912687:+|CDS|ENSG00000096717|unk|FALSE|unique (ssRNA)
# RNA: GGGAGUUCUACAGUCCGACGAUCUUUUGAUGUAGAGCUUCUUGGAGACUGUGAUGUCAUAAUUAAUGAAUUGUGUCAUAGGUUAGGUGGUGAAUAUGCCAAACUUUGCUGUAACCCUGUAAAGCUUUCAGAAAUUACUGAAAACAACAGAGGAUUGAGCAUCA
# B8: chr19:4839056:4839157:-|3pUTR|ENSG00000105355|msi1|FALSE|unique (ssRNA)
# RNA: GGGAGUUCUACAGUCCGACGAUCUCUAUAAUGCAGCUGUGCUCUGGAGUCCUCAACCCGGGGCUCAUUUCAAACUUAUUUUCUAGCCACUCCUCCCAGCUCUUCUGUGCUGUCCACUUGGGAAGCUAAGGCUCUCAAAACGGGCAACAGAGGAUUGAGCAUCA
# B9: ENSG00000136451:be:win_1501|CDS_3pUTR|ENSG00000136451|bound_else_gene|NA|bound_elsewhere_windowed (ssRNA)
# RNA: GGGAGUUCUACAGUCCGACGAUCGCAAUGAGACCUGUAGAGAGCAUGCCUUUCUUGCCCCAAGCUUUGCCUACAUCACCGCCUUGGUAAACAGUAUUAUAAAAUCAAAAUAUGGGUAAAAGUAAAUAUUUACCAGCAACUUAACAACAGAGGAUUGAGCAUCA
# B10: ENSG00000198589:be:win_801|CDS|ENSG00000198589|bound_else_gene|NA|bound_elsewhere_windowed (ssRNA)
# RNA: GGGAGUUCUACAGUCCGACGAUCUCAUUUUGUUGGAGGCUGUUUGAUUGUAACAUCAAUAAAGUCAAAAGGAAAAGGCUUUCAACACUGUGUGAAAUUUGAUUUCAAGCCACAAAAGUGGUAUAUGGUUACCAUAGUACACAUCAACAGAGGAUUGAGCAUCA
# B11: chr2:112756978:112757080:-|CDS|ENSG00000169607|unk|FALSE|unique (ssRNA)
# RNA: GGGAGUUCUACAGUCCGACGAUCCUUCUGGGCAAAAGGCUGACUUCAGAAUGUGUUUCUUCUAACCCAUACUCUAAGCCUUCUAGCAAGAGUUUUCAACAGUGUGAAGCUGGAUCGUCCACAACAGGAGAACUGUCAAGAAAACAACAGAGGAUUGAGCAUCA
# B12: chr6:145805060:145805161:-|CDS|ENSG00000118496|unk|FALSE|bound_elsewhere (ssRNA)
# RNA: GGGAGUUCUACAGUCCGACGAUCAGAAGAUCCUAUGGGCCUCCAAGGAAUAGAUCUGAUCACAGCAGCAUUGCUUUUUUGUCUAGGAGAUUCUCCAGGAGGGAGGGGUAUAUCUGAUAGCCGCAUGGCUGAUAUUUAUCACAUCAACAGAGGAUUGAGCAUCA
# B13: chr11:130404922:130405557:-|three_prime_utr|ENSG00000134917|control|control|control (ssRNA)
# RNA: GGGAGUUCUACAGUCCGACGAUCAUGGGGCGGCAGACCCUAUCAUCAACUGUCCAGUGGACUGGACCUUGCUCGGGUUCAAGUAGAGGGCAUAGGUUAAAAGGUAAAAGUGCACUUAUUGACUCAGACAGGACACUCAGCGUCCAACAGAGGAUUGAGCAUCA
# B14: chr8:48920054:48920155:-|CDS|ENSG00000019549|unk|FALSE|unique (ssRNA)
# RNA: GGGAGUUCUACAGUCCGACGAUCACCUAUUCAACUUUUUCUGGGCUGGCCAAACAUAAGCAGCUGCACUGCGAUGCCCAGUCUAGAAAAUCUUUCAGCUGUAAAUACUGUGACAAGGAAUAUGUGAGCCUGGGCGCCCUGAAGCAACAGAGGAUUGAGCAUCA
# Molecular target: T1, UNK ZnF1-6 (called full-length) (human, UniProt Q9C0B0 30-357)
# T1 sequence: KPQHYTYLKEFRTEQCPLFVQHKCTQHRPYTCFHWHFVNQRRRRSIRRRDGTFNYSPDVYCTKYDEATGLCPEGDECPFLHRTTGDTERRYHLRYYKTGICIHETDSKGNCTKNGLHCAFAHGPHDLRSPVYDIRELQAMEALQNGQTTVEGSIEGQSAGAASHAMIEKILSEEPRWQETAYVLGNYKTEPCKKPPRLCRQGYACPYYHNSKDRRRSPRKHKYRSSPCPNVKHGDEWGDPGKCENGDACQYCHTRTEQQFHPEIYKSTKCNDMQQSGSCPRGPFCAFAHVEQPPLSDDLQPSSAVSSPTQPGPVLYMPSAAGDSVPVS
# Assay: nsRBNS (natural sequence RNA bind-n-seq); RBNS binding buffer (assumed for nsRBNS): 25 mM Tris pH 7.5, 150 mM KCl, 3 mM MgCl2, 0.01% Triton X-100, 500 ug/ml BSA, 20 U/ml SUPERase-In, 4 C; UNK is unkempt and MSI1 is Musashi-1; names of the RNAs are library labels; protein concentration not given here; high values mean tight binding
row,Binder,binding signal
1,B1,0.656 enrichment R
2,B2,0.719 enrichment R
3,B3,0.369 enrichment R
4,B4,0.618 enrichment R
5,B5,0.371 enrichment R
6,B6,0.653 enrichment R
7,B7,1.36 enrichment R
8,B8,0.963 enrichment R
9,B9,0.554 enrichment R
10,B10,0.348 enrichment R
11,B11,0.661 enrichment R
12,B12,0.71 enrichment R
13,B13,0.809 enrichment R
14,B14,0.677 enrichment R
